Laboratory results as given in the supplement of paper PMC7826260.
This is one part of the list. Viral Rep nickase domains cut single-stranded DNA in vitro for 1 h at 37 °C with 3 µM enzyme; only the middle of the 90-letter strands is printed. A value is the log2 ratio of uncut reads to the pool without enzyme; uncut sequences lie near 0, cut ones below; no hit call is given. The scaling is to total reads; uncut strands gain when others are lost, and binding without cutting may add a little.

Tests used:
Experiment in all cases: uncleaved DNA left, log2 of reads against the no-enzyme library (log2 ratio); higher = less cleavage (more negative = more Rep cleavage of the k-mer); sequences stand for … in CTCGTCCG…ACCGGAGA
[1] = tested on: T1, Rep nickase domain of Muscovy duck circovirus
T1 sequence (protein, residues 1-111, tag omitted): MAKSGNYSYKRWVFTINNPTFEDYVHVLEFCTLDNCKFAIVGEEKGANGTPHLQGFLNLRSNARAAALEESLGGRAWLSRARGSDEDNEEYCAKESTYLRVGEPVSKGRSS
Procedure: (§1)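 A pool of 90-nt single-stranded DNAs with seven random bases just before the constant AC of the nick site (name = the seven bases) was cut by 3 µM recombinant His6-SUMO-tagged Rep nickase domain (300 nM DNA, 50 mM HEPES pH 8.0, 50 mM NaCl, 1 mM MnCl2, 1 h, 37 °C, three replicates). Uncut DNA was amplified and sequenced.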

[2] = tested on: T2, Rep nickase domain of banana bunchy top virus
T2 sequence (protein, residues 1-94, tag omitted): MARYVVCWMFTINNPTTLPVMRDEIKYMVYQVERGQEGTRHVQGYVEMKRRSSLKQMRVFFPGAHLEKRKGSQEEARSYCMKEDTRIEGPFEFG
Procedure: as §1

[3] = tested on: T3, Rep nickase domain of cabbage leaf curl virus
T3 sequence (protein, residues 1-116, tag omitted): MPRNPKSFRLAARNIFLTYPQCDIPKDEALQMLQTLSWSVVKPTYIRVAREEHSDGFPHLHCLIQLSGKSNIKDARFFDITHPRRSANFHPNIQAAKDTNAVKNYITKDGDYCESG
Procedure: as §1

[4] = tested on: T4, Rep nickase domain of chickpea chlorotic dwarf virus
T4 sequence (protein, residues 1-124, tag omitted): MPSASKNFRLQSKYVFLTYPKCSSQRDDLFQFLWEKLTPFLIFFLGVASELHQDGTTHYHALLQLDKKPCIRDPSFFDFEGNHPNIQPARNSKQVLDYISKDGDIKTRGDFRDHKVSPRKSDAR
Procedure: as §1

[5] = tested on: T5, Rep nickase domain of faba bean necrotic yellows virus
T5 sequence (protein, residues 1-98, tag omitted): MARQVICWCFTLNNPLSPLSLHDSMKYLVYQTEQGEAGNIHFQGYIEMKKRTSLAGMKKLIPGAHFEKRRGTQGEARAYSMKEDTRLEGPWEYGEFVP
Procedure: as §1

[6] = tested on: T6, Rep nickase domain of maize striate mosaic virus
T6 sequence (protein, residues 1-117, tag omitted): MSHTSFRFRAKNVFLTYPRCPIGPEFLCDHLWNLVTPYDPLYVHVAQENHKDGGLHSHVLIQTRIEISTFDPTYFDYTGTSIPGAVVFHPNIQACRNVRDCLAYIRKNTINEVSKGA
Procedure: as §1

[7] = tested on: T7, Rep nickase domain of porcine circovirus 2
T7 sequence (protein, residues 2-116, tag omitted): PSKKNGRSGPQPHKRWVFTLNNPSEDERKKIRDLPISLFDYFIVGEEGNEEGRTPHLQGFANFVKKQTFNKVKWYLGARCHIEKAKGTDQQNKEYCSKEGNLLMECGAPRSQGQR
Procedure: as §1

[8] = tested on: T8, Rep nickase domain of tomato yellow leaf curl virus
T8 sequence (protein, residues 1-136, tag omitted): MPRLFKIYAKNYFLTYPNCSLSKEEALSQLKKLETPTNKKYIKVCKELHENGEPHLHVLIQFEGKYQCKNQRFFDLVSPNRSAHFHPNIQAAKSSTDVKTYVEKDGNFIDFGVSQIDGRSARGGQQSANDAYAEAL
Procedure: as §1

[9] = tested on: T9, Rep nickase domain of wheat dwarf virus
T9 sequence (protein, residues 1-137, tag omitted): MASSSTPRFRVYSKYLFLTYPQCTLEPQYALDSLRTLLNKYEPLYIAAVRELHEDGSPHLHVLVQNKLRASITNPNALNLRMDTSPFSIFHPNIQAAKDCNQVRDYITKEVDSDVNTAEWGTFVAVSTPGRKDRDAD
Procedure: as §1

Sequence	uncleaved DNA left (log2) [1]	uncleaved DNA left (log2) [2]	uncleaved DNA left (log2) [3]	uncleaved DNA left (log2) [4]	uncleaved DNA left (log2) [5]	uncleaved DNA left (log2) [6]	uncleaved DNA left (log2) [7]	uncleaved DNA left (log2) [8]	uncleaved DNA left (log2) [9]
ACGCAAT	-0.0702	0.0962	-0.158	-0.493	0.127	-0.516	-0.0515	-0.119	-0.0311
GTCGATC	-0.114	-0.128	0.221	0.759	-0.0838	1.36	-0.113	0.0184	0.0233
CAATTCG	0.0866	-0.0562	-0.556	0.934	0.0451	-0.044	0.178	0.0902	-0.00458
GATCGTG	0.112	0.0196	-0.382	-0.416	0.0543	-0.667	0.215	0.0844	-0.175
GGCAGTA	0.179	0.0913	0.634	1.32	0.0843	1.84	0.188	0.115	0.0745
GCGCTAT	0.0312	-0.118	0.0317	0.156	0.00544	0.271	-0.132	-0.226	0.00199
CCGACCC	0.00037	-0.0333	0.0652	0.243	-0.0292	0.295	-0.135	-0.0199	-0.0106
GGGACGA	0.0665	0.215	0.938	2.16	0.0172	2.34	0.266	-0.104	0.28
ATCTCGT	0.00612	-0.153	-0.431	-0.923	0.0749	-1	-0.28	-0.0149	-0.0133
TGCTCAG	0.222	0.0966	-0.417	-0.523	0.139	-0.929	0.0757	0.205	-0.00446
CGATCAT	-0.0277	0.0685	0.366	0.646	0.00417	0.698	-0.192	0.143	0.165
CCCGACG	0.0674	-0.046	-0.817	-0.831	-0.0569	-0.942	0.191	0.0707	-0.0399
AGTGTGC	0.0347	0.0748	-0.341	-0.36	0.105	-0.758	0.238	0.0606	0.0344
CTTTGTT	-3.1	-1.44	-0.829	-2.97	-0.192	-1.38	-3.24	0.0641	-0.661
GTACGAC	0.0631	0.0604	0.42	0.859	0.031	1.36	0.033	0.0794	0.105
AAGCTGA	0.142	0.0165	0.532	1.91	0.157	1.85	0.345	0.0917	0.103
AAGTATC	0.17	0.0419	0.0498	-0.143	-0.586	0.00139	-3.06	-0.0811	0.134
CCTCCAT	0.0772	0.0897	0.191	-0.366	-0.0269	-0.255	0.0617	0.0924	0.105
TACGGGG	0.0465	0.0386	0.503	0.761	0.0178	1.2	0.243	-0.154	0.0522
ACCGGTG	0.124	-0.0355	-0.273	0.175	-0.026	-0.389	0.145	0.0278	-0.0971

Sequence	uncleaved DNA left (log2) [1]	uncleaved DNA left (log2) [2]	uncleaved DNA left (log2) [3]	uncleaved DNA left (log2) [4]	uncleaved DNA left (log2) [5]	uncleaved DNA left (log2) [6]	uncleaved DNA left (log2) [7]	uncleaved DNA left (log2) [8]	uncleaved DNA left (log2) [9]
CTAGGTT	0.0398	0.157	0.226	0.63	-0.11	1.63	0.0231	-0.0969	0.138
GAGTCCC	0.0661	0.139	0.394	0.723	0.00389	1.35	-2.38	0.159	0.277
TGTGATG	0.0898	-0.0697	-0.139	0.23	0.0795	0.267	0.128	-0.0601	-0.00917
GCTCCAA	-0.123	-0.103	0.0253	0.389	-0.144	0.28	-0.159	-0.125	-0.119
TCAGGAA	0.0382	0.0155	0.326	1.26	0.0442	1.6	0.149	-0.166	0.00857
ATATAAG	0.127	0.105	-0.683	0.131	0.134	-0.983	0.18	0.122	-0.0299
AGCCACG	0.00381	0.0086	-0.615	-0.524	-0.0903	-0.932	0.106	-0.0901	-0.00297
TCTATGG	0.165	0.103	0.466	1.04	0.152	1.09	0.183	-0.0143	0.0877
ATAAACT	0.131	-0.0279	-0.11	-2.62	0.029	-0.918	-0.0778	-0.0312	-0.0334
ATTGTAA	-0.0512	0.00645	-0.181	-0.471	-0.0681	-0.849	-0.136	-0.0528	-0.0219
TGGCGCA	-0.0311	-0.0536	-0.148	-0.238	-0.0611	-0.294	-0.0619	-0.176	-0.107
AGCATCC	0.00136	0.113	0.113	0.28	-0.0478	-0.0273	-0.193	0.0609	0.139
TATTCCC	-2.97	-0.912	0.0555	-0.677	-0.0403	-0.426	-2.16	-0.027	-0.0838
GCCTCTA	0.093	0.201	0.0446	-0.116	-0.0786	0.316	-0.0383	-0.0757	0.142
TACTAAG	0.0381	0.11	-0.772	-0.612	0.0995	-1.12	0.152	0.11	-0.0635
GAAATCA	0.0311	0.123	0.274	-0.346	0.0272	0.87	-0.0639	0.13	0.0807
GGGATTT	-0.00548	0.168	0.929	2	-0.0768	2.29	0.261	0.124	0.164
AGAGCAC	0.0509	0.132	0.195	0.262	0.111	0.377	0.0109	0.121	0.165
TCAGCAA	-0.106	0.0623	-0.0904	-0.478	-0.11	-0.955	-0.0465	-0.0244	-0.0684
AACATAA	0.132	0.115	-0.0924	-0.798	0.169	-0.651	0.132	0.125	0.144

Sequence	uncleaved DNA left (log2) [1]	uncleaved DNA left (log2) [2]	uncleaved DNA left (log2) [3]	uncleaved DNA left (log2) [4]	uncleaved DNA left (log2) [5]	uncleaved DNA left (log2) [6]	uncleaved DNA left (log2) [7]	uncleaved DNA left (log2) [8]	uncleaved DNA left (log2) [9]
AAGCTTT	-0.0186	0.0133	-0.0187	-2.22	-0.0177	0.742	-3.32	0.0572	-0.0346
CTAATAG	-0.0861	-0.17	-0.919	-0.55	-0.0108	-1.39	0.164	-0.0608	-0.076
GACGCCC	0.0512	0.0589	0.134	0.302	0.03	0.348	-0.0131	0.0287	0.132
TAATCTT	-3.81	-3.06	-4.95	-3.62	-0.539	-3.43	-4.59	-3.47	-4.81
TACAGGC	0.193	0.0243	0.152	0.0507	0.0945	-0.645	0.0926	0.135	0.0625
TGTTTAT	-0.381	0.0133	0.36	0.338	0.0545	0.999	-0.471	0.125	0.119
TAAATTA	-0.0565	0.0182	-2.38	-2.61	-0.0418	-0.909	-0.193	-0.00352	-1.75
GGGCTTC	0.00894	0.0426	0.745	1.78	0.0413	2.15	0.0996	-0.0187	0.0761
ATCCGCG	-0.175	-0.0823	-0.548	1.08	-0.0495	0.0685	0.13	-0.093	-0.202
CGCCACG	-0.000262	0.0852	-0.627	-0.3	0.0802	-0.698	0.149	0.0437	-0.157
TTTTTAT	-1.72	-0.0813	0.252	-0.489	0.000183	-0.00491	-1.27	0.0899	0.018
ATCAAAC	0.0113	0.0378	-0.0195	-0.197	0.0172	-0.831	0.0767	-0.0388	0.0404
CGCCGAC	0.0884	-0.0361	0.196	0.31	-0.118	0.0207	0.0574	-0.0585	0.135
ATTGACA	0.0299	0.0254	-0.0297	0.0675	-0.00422	0.315	0.0639	0.0112	-0.026
CTCAGTA	0.102	-0.0532	-0.16	-1.24	-0.0305	-0.565	-0.082	0.0183	0.0975
AACAAGG	-0.00808	-0.0141	0.181	0.86	0.0029	-0.0847	0.222	-0.0841	0.0564
AGTTGCT	-0.329	-0.177	-0.862	-1.02	-0.052	-1.21	-3.17	0.0622	-0.129
ACTAAAT	0.0306	0.0383	-0.097	-0.611	-0.0579	-0.604	-0.619	-0.0578	0.181
GAAACAC	0.044	0.024	0.304	0.693	0.0092	0.877	0.172	0.0905	0.207
GGGACGC	-0.0186	0.061	0.867	2.07	-0.0351	2.28	0.219	-0.104	0.162
